The record followed here is paper PMC4336329 (PLoS ONE, 2015).

Screen size: about 310,000 compounds; about 14,000 (4.5%) showed an effect of 50% or more. Effects have a minus sign here. The list shows a part of the results.
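Further: peak tail current of the secondary pulse compared with the same well before compound.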

human ether-à-go-go-related gene (hERG) potassium channel, sequence (Q12809 whole entry, looked up): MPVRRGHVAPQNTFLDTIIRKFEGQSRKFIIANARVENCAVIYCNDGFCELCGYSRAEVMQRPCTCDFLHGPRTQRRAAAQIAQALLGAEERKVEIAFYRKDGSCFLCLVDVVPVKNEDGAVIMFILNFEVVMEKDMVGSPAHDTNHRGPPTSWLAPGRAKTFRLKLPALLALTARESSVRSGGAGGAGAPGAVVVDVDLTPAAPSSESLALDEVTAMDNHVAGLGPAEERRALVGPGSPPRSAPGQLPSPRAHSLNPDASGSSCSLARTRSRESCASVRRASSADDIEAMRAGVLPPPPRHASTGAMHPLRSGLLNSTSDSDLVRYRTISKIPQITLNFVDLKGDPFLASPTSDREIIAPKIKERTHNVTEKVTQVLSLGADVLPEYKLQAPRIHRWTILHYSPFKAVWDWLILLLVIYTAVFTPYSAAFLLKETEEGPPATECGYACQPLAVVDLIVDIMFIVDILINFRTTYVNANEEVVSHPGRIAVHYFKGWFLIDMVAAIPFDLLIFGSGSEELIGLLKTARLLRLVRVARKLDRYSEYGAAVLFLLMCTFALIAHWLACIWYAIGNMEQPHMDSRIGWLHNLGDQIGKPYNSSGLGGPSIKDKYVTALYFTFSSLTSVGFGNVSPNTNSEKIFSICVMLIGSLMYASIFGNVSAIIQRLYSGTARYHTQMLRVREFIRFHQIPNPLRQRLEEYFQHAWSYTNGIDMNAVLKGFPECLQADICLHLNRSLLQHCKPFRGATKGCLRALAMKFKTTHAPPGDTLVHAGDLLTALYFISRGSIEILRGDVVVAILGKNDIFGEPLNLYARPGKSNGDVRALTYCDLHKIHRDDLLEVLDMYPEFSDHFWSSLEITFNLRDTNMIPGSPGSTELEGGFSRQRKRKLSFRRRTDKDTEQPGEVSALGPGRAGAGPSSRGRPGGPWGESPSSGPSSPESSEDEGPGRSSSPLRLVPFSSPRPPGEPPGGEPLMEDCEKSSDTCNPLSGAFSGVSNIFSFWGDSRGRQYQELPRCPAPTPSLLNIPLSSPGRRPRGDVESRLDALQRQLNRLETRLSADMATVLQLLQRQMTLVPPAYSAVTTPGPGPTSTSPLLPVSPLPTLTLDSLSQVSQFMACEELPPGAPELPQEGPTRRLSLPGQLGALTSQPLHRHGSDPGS

The assay addresses human ether-à-go-go-related gene (hERG) potassium channel (human, UniProt Q12809). As to the kind of experiment: primary screen, population patch clamp on CHO cells stably expressing hERG.
As to `CC(=O)c1ccc(N2CCN(C(=O)C(=O)c3c(C)[nH]c4ccccc34)CC2)cc1`, the “hERG current change (%, negative = inhibition) at 10uM” value is recorded as -42.4%.
Next, `CC(=O)c1cccc(CN2CCC(C(=O)Nc3ccc(-c4cccc(C)c4)cc3)CC2)c1`: 2.59%.
Next, `CC(=O)c1cccc(NC(=O)C(C)OC(=O)C2CCC2)c1` (stereo not drawn): 18.2%; `CCCCn1c(N)c(N(CC(C)C)C(=O)C2CC(=O)N(CCc3ccccc3)C2)c(=O)[nH]c1=O` (stereo not drawn): 7.09%.
Under `CCN1CCN(C(c2ccc(F)cc2)c2nnnn2Cc2ccc3c(c2)OCO3)CC1.Cl` (stereo not drawn) stands -44%; under `O=C(CCS(=O)CCC(=O)NCc1ccccc1)NCc1ccccc1`, 17.7%.
Regarding `COc1ccc(NC(=O)NC2(C(=O)N3CCCC(C)C3)CCCCC2)cc1` (stereo not drawn), the “hERG current change (%, negative = inhibition) at 10uM” value came to 16.6%.
Under `C[C@H](NC(=O)c1nc[nH]c1C(=O)OCc1ccccc1)c1ccccc1` stands 10.3%; under `O=C(NCc1cccnc1)c1ccc(COc2ccc(Cl)cc2)cc1`, -58.6%; under `COc1ccc(-c2cc(=O)oc3cc(OCC(=O)NCC(O)c4ccccc4)ccc23)cc1` (stereo not drawn), 2.17%.
As for `CCC(=NCC1CCCO1)c1c(O)n(Cc2ccccc2)c(=O)[nH]c1=O` (stereo not drawn), the “hERG current change (%, negative = inhibition) at 10uM” value is recorded as -46.1%.
Under `O=C(Cc1ccc(Cl)cc1)NNC(=O)c1cnccn1` stands 4.98%.
Next, `CCc1nnc(NC(=O)C2CCCN2S(=O)(=O)c2ccc(C)cc2)s1` (stereo not drawn): 2.98%.
Under `COc1ccc(Br)cc1C(=O)Nc1ccc(C(=O)NCC(C)C)cc1` stands -8.26%; under `N#Cc1c(N)nc2c(c1N)CC(=O)N2c1ccc(Cl)cc1`, 3.95%.
In the case of `CCOC(=O)c1[nH]c2ccc(F)cc2c1NC(=O)c1ccccc1C(=O)O`, the “hERG current change (%, negative = inhibition) at 10uM” value is 19.4%.
Under `COc1cccc(/C=C2/SC(=O)N(CC(=O)N3CCc4ccccc4C3)C2=O)c1OCC(=O)O` stands 11.8%.
Consider `COC(=O)CN1C(=O)C(C)=C(c2ccc(C)cc2)S1(=O)=O`, for which the “hERG current change (%, negative = inhibition) at 10uM” value was -3.87%.
Under `CCC(c1nnnn1Cc1ccco1)N(CCc1ccccc1)Cc1cc2cccc(C)c2[nH]c1=O` (stereo not drawn) stands 11.4%; under `COc1ccc(Nc2ncc(C(=O)N3CCC4(CC3)OCCO4)c3ccccc23)cc1`, -3.86%.
Next, `Cc1ccccc1CC1(CO)CCCN(C(=O)c2ccccc2N(C)C)C1` (stereo not drawn): -1.63%.
Under `Cc1ccc(C(=O)COC(=O)C2CC(=O)N(c3nc(-c4ccccc4)cs3)C2)cc1` (stereo not drawn) stands 17.5%; under `CC1CN=C(N(C(=O)Nc2ccccc2)c2ccc(F)cc2)S1` (stereo not drawn), 1.84%.
In the case of `COc1ccccc1N1CCN(S(=O)(=O)c2ccc3c(c2)n(C)c(=O)n3C)CC1`, the “hERG current change (%, negative = inhibition) at 10uM” value is on record as 3.95%.
Next, `c1ccc(-c2nn[nH]n2)cc1`: 13.4%.
Under `O=c1[nH]c(COc2ccc(Cl)cc2Br)nc2ccccc12` stands 1.54%.
Next, `O=C(O)CN1C(=O)/C(=C/c2ccccc2Cl)Oc2ccccc21`: 20.8%.
As for `COc1ccc(OC)c(S(=O)(=O)N2CCN(C)CC2)c1`, the “hERG current change (%, negative = inhibition) at 10uM” value is given as -1.85%.
On to `CCOc1ccc(Cc2nnc(SCC(=O)Nc3ccc(OC)cc3)n(N)c2=O)cc1`, for which the “hERG current change (%, negative = inhibition) at 10uM” value is reported as 10.1%.
Under `O=C(CC1NC(=O)NC1=O)Nc1ccccc1` (stereo not drawn) stands -0.537%; under `Cc1nc(CNC(=O)CC2C(=O)NCCN2Cc2ccc(F)cc2)cs1` (stereo not drawn), 11.9%; under `CCOC(=O)c1cn2cccnc2n1`, 23.7%.
Under `COc1ccc(-c2noc(CCC(=O)Nc3cccnc3)n2)cc1OC` stands -5.98%; under `O=S(=O)(c1ccc2oc3ccc(S(=O)(=O)N4CCCCC4)cc3c2c1)N1CCCCC1`, -1.1%.
In the case of `O=C1C(Cc2ccc(O)cc2)NC(=S)N1C1CCCCC1` (stereo not drawn), the “hERG current change (%, negative = inhibition) at 10uM” value was -3.17%.
Under `CN1CCN(c2nc3c(c(=O)n(C)c(=O)n3C)n2Cc2ccc(F)cc2)CC1` stands -18.7%; under `CNCCc1c[nH]c2ccccc12`, 6.05%; under `Cc1ccc(-n2c(C)cc(/C=N/Nc3ccc([N+](=O)[O-])cn3)c2C)cc1`, -4.67%.
Next, `CCOc1ccc(N(CC(=O)NCC2CCCO2)C(=O)CCC(=O)Nc2ccccn2)cc1` (stereo not drawn): -34.8%.
Take `COc1ccc(CC[n+]2cc(/N=C(\C)[O-])on2)cc1OC`: the “hERG current change (%, negative = inhibition) at 10uM” value is -3.39%.
For the molecule `Cn1c(=O)n(CC(N)=O)c2ccccc21`, the “hERG current change (%, negative = inhibition) at 10uM” value worked out at 0.89%.
Consider `CCn1nnc(-c2ccccc2NC(=O)c2cc(OC)cc(OC)c2)n1`, for which the “hERG current change (%, negative = inhibition) at 10uM” value was 20.6%.
As for `CCOC(=O)N1CCN(C(=O)CCc2c(C)nc3nc(C)nn3c2C)CC1`, the “hERG current change (%, negative = inhibition) at 10uM” value is reported as -22%.
`Cc1sc2ncnc(NCCN3CCOCC3)c2c1C.O=C(O)C(=O)O`: the “hERG current change (%, negative = inhibition) at 10uM” value is -22.4%.
Under `CCOC(=O)C1=C(C)S/C(=C\N(C)C)C1=O` stands 1.38%.
For the molecule `Cc1ccc(NC(=O)COc2cccc(Oc3ccccc3)c2)cc1S(=O)(=O)N1CCOCC1`, the “hERG current change (%, negative = inhibition) at 10uM” value came out at 9%.
Under `CCN(CC)C(=O)c1cccc(NC(=O)C2=COCCO2)c1` stands 6.95%; under `Cc1cccc(C(CC(=O)NCCc2ccccc2)c2ccccc2)c1O` (stereo not drawn), -31.6%.
As for `COc1ccc(CCNC(=O)CC(=O)N/N=C/c2ccc(C(=O)O)cc2)cc1OC`, the “hERG current change (%, negative = inhibition) at 10uM” value came to 18.8%.
Take `Cc1nnc(NC(=O)Cc2ccc(OCc3c(C)noc3C)cc2)s1`: the “hERG current change (%, negative = inhibition) at 10uM” value amounted to 15.9%.
Under `COc1ccc(Cl)cc1NS(=O)(=O)c1cc(Br)cnc1N` stands -8.08%; under `CC(C)(C)NC(=O)/C=N/O`, 24.4%; under `Cc1cc(C)c(NC(=S)N(CCN2CCCCC2)Cc2ccco2)c(C)c1`, -37.9%.
Next, `O=C1C(=O)N(Cc2ccncc2)C(c2ccccc2F)/C1=C(\O)c1ccc2c(c1)OCCO2` (stereo not drawn): 14.8%; `CC(C)c1ccc2occ(-c3nn[nH]n3)c(=O)c2c1`: 8.11%.
Under `Cc1ccc(C(=O)/C=C/NNC(=O)c2ccccc2O)cc1` stands -6.15%; under `O=C(Nc1cccc(NC(=O)c2cccs2)c1)c1cccnc1`, -6.06%.
